Measurements reported in patent US20190309067A1 (BIONTECH, published 2019).
“And” between values parts separate entries of the source, which are not always exact repeats. Equal values may be shown once.

T1: claudin 6 (CLDN6) (human, UniProt P56747 1-220)
T1 sequence (looked up): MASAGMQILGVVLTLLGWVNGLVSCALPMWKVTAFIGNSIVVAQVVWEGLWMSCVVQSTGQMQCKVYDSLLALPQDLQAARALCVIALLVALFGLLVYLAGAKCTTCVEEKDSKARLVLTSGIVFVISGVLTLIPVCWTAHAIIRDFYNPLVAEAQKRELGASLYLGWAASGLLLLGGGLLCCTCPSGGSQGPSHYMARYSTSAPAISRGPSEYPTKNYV

B1: Bstb_369/367 (bispecific antibody)
heavy: QVQLQQSGAELARPGASVKMS[letters of about 80 residues omitted]WGQGTTLTVSSASTKGPSVFPLAPSSKSTSGGTAALGCLVKDYFPEPVTVSWNSGALTSGVHTFPAVLQSSGLYSLSSVVTVPSSSLGTQTYICNVNHKPSNTKVDKRVEPKSCSGPGGGRSGGGGSGGGGSEVQLQQSGPELVKPGASMKISCKASGYSFTGYTMNWVKQSHGKCLEWIGLINPYNGGTIYNQKFKGKATLTVDKSSSTAYMELLSLTSEDSAVYYCARDYGFVLDYWGQGTTLTVSSGGGGSGGGGSGGGGSGGGGSQIVLTQSPSIMSVSPGEKVTITCSASSSVSYMHWFQQKPGTSPKLWIYSTSNLASGVPARFSGRGSGTSYSLTISRVAAEDAATYYCQQRSNYPPWTFGCGTKLEIKGGSHHHHHH
light: not shown
notes: Fab-(scFv)2 (bispecific TriMAB): anti-CD3 Fab with one anti-CLDN6 scFv (IMAB206-SUBW, disulfide-stabilised) at the C-terminus of each chain
B2: Bstb_371/367 (bispecific antibody)
heavy: QVQLQQSGAELARPGASVKMS[letters of about 80 residues omitted]WGQGTTLTVSSASTKGPSVFPLAPCSKSTSEGTAALGCLVKDYFPEPVTVSWNSGALTSGVHTFPAVLQSSGLYSLSSVVTVPSSNFGTQTYTCNVDHKPSNTKVDKTVEPKSASGPGGGRSGGGGSGGGGSEVQLQQSGPELVKPGASMKISCKASGYSFTGYTMNWVKQSHGKCLEWIGLINPYNGGTIYNQKFKGKATLTVDKSSSTAYMELLSLTSEDSAVYYCARDYGFVLDYWGQGTTLTVSSGGGGSGGGGSGGGGSGGGGSQIVLTQSPSIMSVSPGEKVTITCSASSSVSYMHWFQQKPGTSPKLWIYSTSNLASGVPARFSGRGSGTSYSLTISRVAAEDAATYYCQQRSNYPPWTFGCGTKLEIKGGSHHHHHH
light: not shown
B3: Bstb_5750/5752 (bispecific antibody)
heavy: QVQLQQSGAELARPGASVKMS[letters of about 80 residues omitted]WGQGTTLTVSSASTKGPSVFPLAPSSKSTSGGTAALGCLVKDYFPEPVTVSWNSGALTSGVHTFPAVLQSSGLYSLSSVVTVPSSSLGTQTYICNVNHKPSNTKVDKRVEPKSCSGPGGGRSGGGGSGGGGSDIVMTQSPSSLTVTAGEKVTMSCKSSQSLLNSGNQKNYLTWYQQKPGQPPKLLIYWASTRESGVPDRFTGSGSGTDFTLTISSVQAEDLAVYYCQNDYSYPFTFGCGTKLEIKGGGGSGGGGSGGGGSGGGGSGGGGSQVQLQQPGAELVRPGASVKLSCKASGYTFTSYWINWVKQRPGQCLEWIGNIYPSDSYTNYNQKFKDKATLTVDKSSSTAYMQLSSPTSEDSAVYYCTRSWRGNSFDYWGQGTTLTVSS
light: not shown
B4: Bstb_5749/5751 (bispecific antibody)
heavy: QVQLQQSGAELARPGASVKMS[letters of about 80 residues omitted]WGQGTTLTVSSASTKGPSVFPLAPSSKSTSGGTAALGCLVKDYFPEPVTVSWNSGALTSGVHTFPAVLQSSGLYSLSSVVTVPSSSLGTQTYICNVNHKPSNTKVDKRVEPKSCSGPGGGRSGGGGSGGGGSQVQLQQPGAELVRPGASVKLSCKASGYTFTSYWINWVKQRPGQCLEWIGNIYPSDSYTNYNQKFKDKATLTVDKSSSTAYMQLSSPTSEDSAVYYCTRSWRGNSFDYWGQGTTLTVSSGGGGSGGGGSGGGGSGGGGSDIVMTQSPSSLTVTAGEKVTMSCKSSQSLLNSGNQKNYLTWYQQKPGQPPKLLIYWASTRESGVPDRFTGSGSGTDFTLTISSVQAEDLAVYYCQNDYSYPFTFGCGTKLEIK
light: not shown
B5: Bstb_5726/5725 (bispecific antibody)
heavy: QVQLQQSGAELARPGASVKMS[letters of about 80 residues omitted]WGQGTTLTVSSASTKGPSVFPLAPSSKSTSGGTAALGCLVKDYFPEPVTVSWNSGALTSGVHTFPAVLQSSGLYSLSSVVTVPSSSLGTQTYICNVNHKPSNTKVDKRVEPKSCSGPGGGRSGGGGSGGGGSEVQLQQSGPELVKPGASMKISCKASGYSFTGYTMNWVKQSHGKCLEWIGLINPYNGGTIYNQKFKGKATLTVDKSSSTAYMELLSLTSEDSAVYYCARDYGFVLDYWGQGTTLTVSSGGGGSGGGGSGGGGSGGGGSQIVLTQSPSIMSVSPGEKVTITCSASSSVSYMHWFQQKPGTSPKLWIYSTSNLASGVPARFSGRGSGTSYSLTISRVAAEDAATYYCQQRSNYPPWTFGCGTKLEIK
light: not shown
notes: Tag-free Fab-(scFv)2, CH1 of IgG1

How the values were obtained:
claudin 6 (CLDN6) [1] = target: T1, claudin 6 (CLDN6); experiment: cell-based or functional assay
claudin 6 (CLDN6) [2] = target: T1, claudin 6 (CLDN6); experiment: flow cytometry on PA-1 cells endogenously expressing CLDN6, detection with Protein L-FITC, half maximal binding
Description: (§1) PA-1 cells endogenously expressing CLDN6 were harvested with 0.05% Trypsin/EDTA, washed with PBS and resuspended in FACS buffer (PBS containing 2% FCS and 0.1% sodium azide) at a concentration of 2×10⁶ cells/ml. 100 μl of the cell suspension was incubated with a concentration series of the different respective antibodies diluted in FACS buffer (11-point, 2-fold dilution series 9.77-10,000 ng/ml) and incubated for 45 min at 4° C. The cells were then washed three times with FACS buffer and incubated for 45 min at 4° C. with Protein L (Pierce/Thermo Scientific) conjugated with FITC by Squarix (Squarix Biotechnology, Marl, Germany) at a concentration of 4 μg/ml. Subsequently, the cells were washed twice and resuspended in 100 μl FACS buffer. Binding was analyzed by flow cytometry using a BD FACSArray (BD Biosciences). The EC50 of half maximal binding was determined using GraphPad Prism 6 One site—Specific binding.
(§2) Noteworthy, the binding curves of the tagged and tag-free bstbs are congruent.

claudin 6 (CLDN6) [3] = target: T1, claudin 6 (CLDN6); experiment: flow cytometry on PA-1 cells endogenously expressing CLDN6, detection with Protein L-FITC
Description: as §1, §2

claudin 18.2 (CLDN18.2) = claudin 18.2 (CLDN18.2) (human); experiment: cell-based or functional assay

Binder	EC50 of specific lysis, luciferase cytotoxicity assay, OV-90 target cells with human PBMC (E:T 5:1), 48 h (claudin 6 (CLDN6) [1]) [nM]	EC50 (claudin 6 (CLDN6) [2])	fold higher relative binding affinity compared to the bi-(scFv)2 reference protein (claudin 6 (CLDN6) [3]) [fold]	EC50 of specific lysis of NUGC-4_hCLDN18.2 cells, 48 h (claudin 18.2 (CLDN18.2)) [nM]	other results
B1	0.0397	~1.9 µg/mL and ~19 nM	~8		EC50 of lysis of OV-90 (48 h), sample with 5% HMW species against monomer (claudin 6 (CLDN6) [1]): 2.3 fold; EC50 of lysis of PA-1 (16 h), sample with 5% HMW species against monomer (claudin 6 (CLDN6) [1]): 1.5 fold; fold lower EC50 of lysis of OV-90 against the bi-(scFv)2 reference (claudin 6 (CLDN6) [1]): 55 fold
B2	0.117				
B3				0.0406	fold EC50 against bi-scFv_5538 after normalisation to the plate reference (claudin 18.2 (CLDN18.2)): 23 fold; fold lower EC50 against bstb_5749/5751 (claudin 18.2 (CLDN18.2)): 1.8 fold
B4				0.0709	fold EC50 against bi-scFv_5506 after normalisation to the plate reference (claudin 18.2 (CLDN18.2)): 6 fold
B5		~1.9 µg/mL and ~19 nM	~8		
